Some of the results follow. Single values are uncertain, as repeats are few or missing.
System: Candida albicans DPL-15
Test: growth (OD600) after compound treatment (apparently relative to screen median) (relative growth (fraction; screen median 1.02)); DPL-15 is a caspofungin-resistant clinical isolate; higher = more fungal growth (less antifungal activity)
Conditions: 25 µM; RPMI 1640; 48 h; 30 °C

**Q.** Which growth does the source give for `COC(=O)[C@@]1(C)CC[C@]2(C)CC[C@]3(C)C(=CC(=O)C4[C@@]5(C)CC[C@H](OS(N)(=O)=O)C(C)(C)[C@@H]5CC[C@]43C)[C@@H]2C1` (stereo not given in full) here?
**A.** 1.05

**Q.** With `COC(=O)C1=C(C)N(Cc2ccc(Cl)cc2)C(=S)NC1c1cccc(Cl)c1` (stereo not given) as the compound, how does the growth read?
**A.** 0.944

**Q.** `CCCN1C(=S)NC(c2cccc(OC)c2)C(C(=O)OC)=C1C` (stereo not given) was tested. Which growth did it give?
**A.** 1.02

**Q.** How did the growth turn out when `COc1ccc(N2C(=O)C3=C(C(C(C)C)=NCCN3C)C2c2ccc(C)cc2)cc1` (stereo not given) was run?
**A.** 1.04

**Q.** How did the growth turn out when `CC1=C[C@@H](COCc2ccccc2)O[C@@]2(C1)C(=O)Nc1cccc(Br)c12` was run?
**A.** 0.93

**Q.** How did the growth turn out when `COC(=O)CC#C[C@H](C)[C@@H](NS(C)(=O)=O)C1CCCCC1` was run?
**A.** 0.931

**Q.** For `C/C=C(\C)C1=C2CCCOC2CCCN1S(=O)(=O)c1ccc([N+](=O)[O-])cc1` (stereo not given), which growth is on record?
**A.** 1.1

**Q.** With `CONC(=O)[C@H]1[C@@H](O)[C@@]2(O)c3c(OC)cc(F)cc3O[C@@]2(c2ccc(Br)cc2)[C@@H]1c1ccccc1` as the compound, how does the growth read?
**A.** 0.97

**Q.** For `COC(=O)N[C@@H]1[C@@H](C)[C@H](OC)[C@]23C=CC=C[C@H]2[C@]13CCN1CCCC1`, which growth is on record?
**A.** 1.21

**Q.** For `CC1(C)CN=C(c2ccccc2)C2=C(N1)C(=O)NC2c1cccc(C(F)(F)F)c1` (stereo not given), which growth is on record?
**A.** 0.94

**Q.** For `Fc1ccc([C@H]2OC[C@H]3[C@@H]2CO[C@@H]3c2ccc(F)cc2)cc1`, which growth is on record?
**A.** 1.02

**Q.** With `CC(C)(C)CC(=O)Cc1cc(O)cc(O)c1C(=O)N1Cc2ccccc2C1` as the compound, how does the growth read?
**A.** 1.09

**Q.** `CC1(C)C(CO)C1COCc1ccccc1` (stereo not given) was tested. Which growth did it give?
**A.** 1.17

**Q.** How did the growth turn out when `CC(C)Cc1n[nH]c2c1C(c1ccc(F)cc1)N(c1ccccc1)C2=O` (stereo not given) was run?
**A.** 0.931

**Q.** `O=C(c1c(O)cc(O)cc1Nc1ccnn1CC1CCCCC1)N1Cc2cccnc2C1` was tested. Which growth did it give?
**A.** 1.03

**Q.** How did the growth turn out when `CC(C)CCc1cc(O)c(O)c2oc3cc(O)cc(O)c3c(=O)c12` was run?
**A.** 0.342

**Q.** For `CC1(Cc2occc(=O)c2OS(C)(=O)=O)C(c2ccc(F)cc2)=Nc2ccccc21` (stereo not given), which growth is on record?
**A.** 1.07

**Q.** With `O=C(O)c1cccc2cnnn12` as the compound, how does the growth read?
**A.** 1.64

**Q.** With `C=C(C)[C@@H]1CC[C@]2(COC(C)=O)CC[C@]3(C)[C@H](CC[C@@H]4[C@@](C)(CCC5OCCO5)[C@H](C(=C)C)CC[C@]43C)[C@@H]12` as the compound, how does the growth read?
**A.** 1.17

**Q.** How did the growth turn out when `O=C(O)/C=C/NC(=O)c1ccccc1` was run?
**A.** 1.2

**Q.** With `CC(=O)C1=C(C)N(Cc2ccc(F)cc2)C(=S)NC1c1ccccc1Cl` (stereo not given) as the compound, how does the growth read?
**A.** 1.11

**Q.** `COC(=O)C1=C(C(=O)OC)[C@@H](c2ccccc2)O[C@H]1c1cccs1` was tested. Which growth did it give?
**A.** 1.17

**Q.** For `C=CCOC(=O)/C=C/NC(=O)[C@@H]1OC(C)(C)OCC1(C)C`, which growth is on record?
**A.** 0.954

**Q.** With `C=CCC[C@@H](O)COc1cc2c(cc1C1(c3cc4c(cc3OC[C@H](O)CCC=C)OCO4)C(=O)Nc3c(F)cccc31)OCO2` as the compound, how does the growth read?
**A.** 0.863

**Q.** How did the growth turn out when `CC(=O)C1=C(C)N(Cc2ccc(F)cc2)C(=S)NC1c1ccc(F)cc1` (stereo not given) was run?
**A.** 0.954

**Q.** With `C#C[C@H](C)OC(=O)c1nnc2c3ccccc3n(COC)c2n1` as the compound, how does the growth read?
**A.** 1.07

**Q.** `C#CCC(C)(C)CNC(=O)CC1(CNC(=O)c2cccc(/C=N/NS(=O)(=O)c3ccc(C)cc3)c2)CCN(S(=O)(=O)c2ccc(C)cc2)CC1` was tested. Which growth did it give?
**A.** 1.13

**Q.** For `COc1ccc(Cn2nc(-c3ccoc3)cc2N)cc1`, which growth is on record?
**A.** 1.08

**Q.** `N#Cc1ccc(-c2[nH]c3ccccc3c(=O)c2O)cc1` was tested. Which growth did it give?
**A.** 0.558

**Q.** Which growth does the source give for `CC(=O)NCC1CNC(=O)CC2(CCCCC2)CNC(=O)c2cccc(c2)-c2[nH]ncc2CO1` (stereo not given) here?
**A.** 1.21

**Q.** `C=CC[C@]12C[C@@]3(O[C@H](C4CCNCC4)N=C3C[C@H](c3ccc(OC)cc3)[C@H]1C)N(Cc1cccs1)C2=O` was tested. Which growth did it give?
**A.** 0.884

**Q.** `COc1ccc(N2C(=O)c3[nH]nc(CC(C)C)c3C2c2ccccn2)cc1` (stereo not given) was tested. Which growth did it give?
**A.** 0.918

**Q.** `COCCN1C(=O)N[C@@H](c2cccc(C(F)(F)F)c2)C(C(C)=O)=C1C` was tested. Which growth did it give?
**A.** 1.03

**Q.** How did the growth turn out when `COc1ccc(C[C@H](CO)[C@H](CO)Cc2ccc3c(c2)OCO3)cc1OC` was run?
**A.** 1.14

**Q.** How did the growth turn out when `Cc1ccc(C2NC(=O)C3=C2C(C(C)C)=NCCN3C)cc1` (stereo not given) was run?
**A.** 0.977

**Q.** For `COc1ccc(N2C(=O)C3=C(C(C)=NCCN3C)C2c2ccccc2)cc1` (stereo not given), which growth is on record?
**A.** 1.06

**Q.** Which growth does the source give for `CC(=O)C1=C2C=CCCN2C(=O)NC1c1ccc(-c2cccc(C)c2)cc1` (stereo not given) here?
**A.** 0.913

**Q.** With `CC(C)Cc1n[nH]c2c1C(c1ccc(F)cc1)N(c1ccc(N3CCCC3=O)cc1)C2=O` (stereo not given) as the compound, how does the growth read?
**A.** 1.02

**Q.** For `COC(=O)c1cc(=O)c2c(O)cc(C#Cc3cccc(OC)c3)cc2o1`, which growth is on record?
**A.** 1.23

**Q.** Which growth does the source give for `CCC[C@@H](O)COc1cc2c(cc1C1(c3cc4c(cc3OC[C@H](O)CCC)OCO4)C(=O)Nc3cc(Br)ccc31)OCO2` here?
**A.** 1.07
